Assay results: PubChem BioAssay AID624296 (National Center for Advancing Translational Sciences (NCATS), 2012)
Among all 350,000 compounds or so, about 9,900 (2.8%) were called active. The shares of active, inactive and inconclusive entries below differ from those in the screen. Calls come from the whole dose curve; as a rule, active = well fitted activation curve with a large enough effect; inconclusive = small, poorly fitted or top-dose-only effect; inactive = no such curve, though single readings can be large or run the other way. Potencies of inconclusive entries are left out as doubtful fits.

Test: A quantitative high throughput screen for small molecules that induce DNA re-replication in MCF 10a normal breast cells. Note: nearly all actives have a fitted effect of over 50% in size.
Details: MCF 10A DNA re-replication, Hoechst nuclear intensity, 48 h; series mostly up to 46.1 µM
Potency is the fitted concentration of half-maximal effect; tags give direction and shape of the fitted curve.

Structure (SMILES) | Potency
O=C(C=Cc1ccccc1)c1ccc([N+](=O)[O-])cc1 | inactive
O=C(Nc1ccc(F)cc1)N1CCC(c2nc3c(nnn3Cc3cccc(Cl)c3)c(=O)[nH]2)CC1 | inconclusive [activator, partial curve, poor fit]
CC(=O)N1N=C(c2ccncc2)CC1c1ccccc1O (stereo not given) | inactive
O=C(c1cccs1)N1CCCN(c2ncnc3scc(-c4ccccc4)c23)CC1 | inconclusive [activator, single point]
Cc1cccc(NC(=O)CCN2CCCCC2)c1 | inactive
CC(=O)c1ccc(Nc2nc(NCCO)nc(OC(C(F)(F)F)C(F)(F)F)n2)cc1 | inconclusive [activator, partial curve]
CC1C/C(=C/c2ccco2)C(=O)/C(=C/c2ccco2)C1 (stereo not given) | inconclusive [activator, single point]
c1ccc(CCCN2CCN(c3ccccn3)CC2)cc1 | inconclusive [activator, single point]
CCC(C)n1c(=N)c(C#N)cc2c(=O)n3ccccc3nc21 (stereo not given) | inconclusive [activator, full curve, poor fit]
Cc1ccc(CNc2nc(N)c([N+](=O)[O-])c(NCc3ccccc3)n2)cc1 | inconclusive [activator, partial curve, poor fit]
COc1ccc(C=C(C(C)=O)C(C)=O)cc1OC | inconclusive [activator, single point]
O=C(CSc1nnc(Cc2cccs2)n1CCc1ccccc1)N1CCCc2ccccc21 | inconclusive [activator, single point]
COc1ccc(C(=O)COC(=O)c2ccc(OC)c(OC)c2)cc1OC | inactive
COc1ccccc1NC(=O)CSc1nnnn1C | inconclusive [activator, single point]
CCCNC(=O)c1cnc(Sc2ncc(C(F)(F)F)cc2Cl)n1C | inactive
NS(=O)(=O)c1ccc(CNS(=O)(=O)c2cccc3nonc23)cc1 | inconclusive [activator, single point]
Cc1ccc(-c2cn3nc(C)c(C)nc3n2)cc1 | inconclusive [activator, single point]
COc1ccc(OC)c(-c2csc(NC(=O)Cc3cc(OC)c(OC)c(OC)c3)n2)c1 | inactive
CCOc1ccc2nc(SC3CC(=O)N(c4ccc(OC)cc4)C3=O)sc2c1 (stereo not given) | inconclusive [activator, partial curve, poor fit]
CC(C)C(=O)N(Cc1ccccc1)S(=O)(=O)c1ccc2c(c1)oc(=O)n2C | inconclusive [activator, partial curve]
Cc1ccc(S(=O)(=O)Nc2ccc3c(c2)CC(=O)N([C@H](C)CO)C[C@@H](C)[C@H](CN(C)Cc2ccc(-c4ccccc4)cc2)O3)cc1 | inconclusive [activator, single point]
Cc1ccc(/C=C/C(=O)Nn2cnnc2)cc1 | inconclusive [activator, partial curve, poor fit]

Structure (SMILES) | Potency
COc1ccc2c(c1)c(CC(=O)OCC(=O)N(C)C)c(C)n2C(=O)c1ccc(Cl)cc1 | inconclusive [activator, partial curve, poor fit]
COC(=O)c1c(NC(=O)CN2CCN(Cc3ccc4c(c3)OCO4)CC2)sc(C)c1C | inconclusive [activator, single point]
Cc1ccc2nc(N3CCN(Cc4ccc(F)cc4)C3=O)c(C)cc2c1 | inconclusive [activator, partial curve, poor fit]
Oc1ccc(/C=C/c2ccc3ccccc3n2)cc1 | inconclusive [activator, single point]
O=C(CSc1nnc(SCc2ccc(Cl)cc2)s1)N/N=C/c1c(Cl)cccc1Cl | inconclusive [activator, single point]
O=S(=O)(Nc1ccc(Cl)nn1)c1ccccc1 | active: 13 µM
Cc1cccc(N2CCN(C(=O)Cc3c(C(=O)O)[nH]c4ccc(Cl)cc34)CC2)c1C | inconclusive [activator, partial curve]
COc1ccccc1NC(=S)N=Nc1c(O)[nH]c2ccc(Br)cc12 | inconclusive [activator, single point]
Cc1ccc(S(=O)(=O)N[C@H](C(=O)OCC(=O)NC(=O)NCc2ccco2)C(C)C)cc1 | inconclusive [activator, partial curve, poor fit]
COc1ccc(-c2noc(N3CCC(C(=O)Nc4cc(OC)c(OC)c(OC)c4)CC3)n2)cc1 | inconclusive [activator, single point]
O=C(Nc1cccc(Br)c1)c1cc(S(=O)(=O)N2CCOCC2)cs1 | inconclusive [activator, partial curve, poor fit]
Cc1ccc(-c2cc(C(=O)N/N=C/c3c(C)nn(-c4ccccc4)c3C)n[nH]2)s1 | inconclusive [activator, partial curve]
CC(C)C(=O)Nc1ccc2nn(-c3ccc(F)cc3)nc2c1 | inconclusive [activator, single point]
C=CCn1c(SCC(=O)Nc2ncc(Cc3ccc(C)c(Cl)c3)s2)nnc1-c1ccncc1 | inconclusive [activator, single point]
O=C(/C(=N\Nc1ccc([N+](=O)[O-])cc1)Sc1nnnn1-c1ccccc1)c1ccccc1 | inconclusive [activator, partial curve, poor fit]
CC(Sc1ccc(S(=O)(=O)N2CCOCC2)cn1)c1ccccc1Cl (stereo not given) | inconclusive [activator, single point]
COc1ccc(/C=C/C(=O)OCC(=O)c2ccccc2F)cc1 | inactive
O=C(NCc1ccco1)c1ccc(Cn2c(=S)[nH]c3ccccc3c2=O)cc1 | inconclusive [activator, single point]
O=C(NCc1ccccn1)c1cccc(S(=O)(=O)Nc2ccccc2Cl)c1 | inactive
Oc1ccc(Cl)cc1CNc1ccc(Br)cn1 | inconclusive [activator, single point]
COc1cc2cc(C(=O)N3CCN(Cc4ccc5c(c4)OCO5)CC3)[nH]c2cc1OC | inconclusive [activator, single point]
COc1cc(-c2cc(=O)c3c(O)cc(O)cc3o2)ccc1O | inconclusive [activator, full curve, poor fit]

Structure (SMILES) | Potency
CN(C)CCCN(C(=O)c1cccs1)c1nc(-c2ccccc2)cs1 | inconclusive [activator, partial curve, poor fit]
COc1cc2nc(/C=C/c3cc(OC)c(OC)c(OC)c3)sc2cc1SC | inconclusive [activator, partial curve, poor fit]
COc1ccc(NC(=O)NC2(C(=O)N3CCN(C)CC3)CCCCC2)cc1 | inactive
Cc1ccc(C)c(N2CCN(S(=O)(=O)c3ccc4[nH]c(=O)ccc4c3)CC2)c1 | inconclusive [activator, single point]
CC(C)=CCc1ccc(O)c(=O)cc1C(C)C | active: 20.6 µM
CCOc1cc(CNCCSc2nnnn2C)cc(Br)c1OCc1ccccc1 | active: 14.6 µM
Cc1cc(C)nc(/N=C(\N)Nc2ccc(CC(=O)OC(C)C)cc2)n1 | inconclusive [activator, single point]
O=C1CC(c2ccccc2Oc2cccc(Cl)c2)C(n2cncn2)C(=O)C1C1NCCc2ccccc21 (stereo not given) | inconclusive [activator, single point]
CCN(C(=O)c1cccc(Br)c1)c1ccccc1 | inactive
O=C(COC(=O)c1ccc(Cl)nc1)NC(=O)c1ccccc1 | inconclusive [activator, single point]
CCn1nnnc1SCC(=O)N1CCCCC1 | inactive
COc1cc2c(cc1OC)C(c1cccs1)N(C(=O)C(C)C)CC2 (stereo not given) | inactive
COc1ccccc1/C=C1\SC(=S)N(CCC(=O)NCCCN2CCOCC2)C1=O | inconclusive [activator, single point]
S=C(c1ccc(-c2ccc(Cl)cc2Cl)o1)N1CCCCC1 | inconclusive [activator, partial curve, poor fit]
Clc1cccc(Cl)c1Cn1cnc(=NCc2ccco2)c2[nH]cnc21 | inconclusive [activator, full curve]
O=C(O)c1cc(N/N=C/c2ccc(-c3ccccc3)cc2)ccc1Cl | active: 3.26 µM
CCN1C(=O)/C(=C/N(C(C)=O)c2ccccc2)N(c2ccccc2)C1=S | inconclusive [activator, single point]
O=C(c1ccc2c(=O)n(-c3ccccc3)c(=O)[nH]c2c1)N1CCCCC1 | inconclusive [activator, single point]
COc1ccc(C(=O)CSc2nc(-c3ccccn3)nc(C)c2Cl)cc1 | inconclusive [activator, single point]
COc1cc(OC)c(OC)cc1/C=N/NC(=O)c1ccc(CSc2nc(C)cc(C)n2)cc1 | inconclusive [activator, single point]
Fc1ccc(C2c3cccn3CCN2C(=S)Nc2cccc(Br)c2)cc1 (stereo not given) | active: 23.1 µM
